From the supplement of paper PMC4604168 (melanoma cell lines) come the findings set out here.

Some test systems named below: MZ2-MEL; MeWo; RPMI7951; RVH-421; SkMel28; SkMel2; SkMel30; SkMel5; UACC257; UACC62.
Common to all, as to assay: cell count relative to DMSO control; melanoma cells; higher = more viable cells
What all share (conditions): library dose: low library concentration; 72 h

SMILES strings stand for the structures. Some of the results follow. Repeats are few or missing, and single values can be far off.
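Also: cell number obtained by counting DAPI-stained nuclei in high-throughput microscope images with image analysis software, screen run in 1,536-well plates.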

Regarding `C[C@@H](Oc1cc(-c2cnn(C3CCNCC3)c2)cnc1N)c1c(Cl)ccc(F)c1Cl` [Crizotinib] + NCC(=O)Nc1ccc(-n2nc(C(F)(F)F)cc2-c2ccc3c(ccc4ccccc43)c2)cc1 [OSU03012] (first compound 0.2 µM, partner dose 1 µM), the cell count was 86.1% in the assay on MZ2-MEL; 63.1% with MeWo; 99.8% in the assay on RPMI7951; 92% in the assay with RVH-421; 75.5% in the assay on SkMel28; 61.8% in the assay with SkMel2. Moreover, the cell count in the assay on SkMel30 was 62.6%; with SkMel5 it was 88.8%; with UACC257, 120%; in the assay with UACC62 it was 74.5%.
`C[C@@H](Oc1cc(-c2cnn(C3CCNCC3)c2)cnc1N)c1c(Cl)ccc(F)c1Cl` [Crizotinib] + N#Cc1c(O)c2c(-c3ccc(-c4ccccc4O)cc3)csc2[nH]c1=O [A769662] (first compound 0.2 µM, partner dose 2 µM): the cell count came to 90.9% in the assay with MZ2-MEL; 88.3% in the assay on MeWo; 123% in the assay on RPMI7951; 105% in the assay with RVH-421; 105% with SkMel28; 96% in the assay on SkMel2. Also, the cell count in the assay on SkMel30 was determined as 115%; with SkMel5, 102%; in the assay on UACC257, 95.4%; with UACC62, 104%.
On to `CS(=O)(=O)CCNCc1ccc(-c2ccc3ncnc(Nc4ccc(OCc5cccc(F)c5)c(Cl)c4)c3c2)o1` [lapatinib] + COc1cc2c(Oc3ccc4[nH]c(C)cc4c3F)ncnc2cc1OCCCN1CCCC1 [cediranib] (first compound 0.8 µM, partner dose 0.4 µM), for which the cell count in the assay on MZ2-MEL worked out at 95.8%; with MeWo it was 93.4%; in the assay on RPMI7951 it was 91.4%; in the assay on RVH-421 it was 93.6%; in the assay with SkMel28, 81.8%; in the assay with SkMel2 it was 92.8%. Moreover, the cell count turned out to be 94.9% in the assay with SkMel30, 81.3% in the assay on SkMel5, 98% with UACC257 and 75.5% in the assay with UACC62.
For `CNC(=O)c1cc(Oc2ccc(NC(=O)Nc3ccc(Cl)c(C(F)(F)F)c3)cc2)ccn1` [sorafenib] + CN(C)S(=O)(=O)c1ccc2c(c1)/C(=C/c1cc3c([nH]1)CCCC3)C(=O)N2 [SU6656] (first compound 0.4 µM, partner dose 0.4 µM), the cell count with MZ2-MEL was determined as 104%; in the assay with MeWo, 93.8%; with RPMI7951 it was 112%; in the assay with RVH-421 it was 96%; in the assay on SkMel28, 74.3%; with SkMel2, 95.1%. Besides, the cell count with SkMel30 is 98%; in the assay on SkMel5, 88.6%; in the assay with UACC257, 63.8%; in the assay with UACC62, 90.4%.
For `CNC(=O)c1cc(Oc2ccc(NC(=O)Nc3ccc(Cl)c(C(F)(F)F)c3)cc2)ccn1` [sorafenib] + O=C(O)c1ccc(-c2c[nH]c3ncc(-c4ccccc4)cc23)cc1C1CCCC1 [GSK650394] (first compound 0.4 µM, partner dose 0.16 µM), the cell count in the assay on MZ2-MEL was 103%; with MeWo it was 94.8%; in the assay on RPMI7951, 108%; in the assay on RVH-421 it was 124%; in the assay on SkMel28 it was 103%; in the assay with SkMel2 it was 96.9%. Also, the cell count in the assay on SkMel30 came out at 103%; in the assay on SkMel5 it was 83.8%; in the assay with UACC257, 127%; in the assay on UACC62, 82.5%.
With `C[C@@H](Oc1cc(-c2cnn(C3CCNCC3)c2)cnc1N)c1c(Cl)ccc(F)c1Cl` [Crizotinib] + O=c1cc(-c2cccc3c2Sc2ccccc2S3)oc(N2CCOCC2)c1 [KU55933] (first compound 0.2 µM, partner dose 1 µM), the cell count in the assay on MZ2-MEL is 98.8%; in the assay on MeWo it was 91.8%; with RPMI7951 it was 92.5%; in the assay with RVH-421, 100%; in the assay on SkMel28, 85.2%; with SkMel2, 96.5%. For the same compound, the cell count in the assay with SkMel30 was 82.5%; in the assay with SkMel5, 97.4%; in the assay with UACC257, 84.5%; with UACC62, 106%.
With `C[C@@H](Oc1cc(-c2cnn(C3CCNCC3)c2)cnc1N)c1c(Cl)ccc(F)c1Cl` [Crizotinib] + Oc1cc(-c2nc(-c3ccccc3)[nH]c2-c2ccncc2)ccc1Cl [L779450] (first compound 0.2 µM, partner dose 0.2 µM), the cell count was found to be 80% in the assay with MZ2-MEL; 77% in the assay on MeWo; 84.5% in the assay on RPMI7951; 153% with RVH-421; 76.8% in the assay on SkMel28; 94.2% in the assay with SkMel2. The cell count in the assay with SkMel30 came to 90.3%; in the assay with SkMel5 it was 95.4%; in the assay with UACC257, 97.8%; in the assay with UACC62, 68.2%.
Take `C=CCNC1=C2C[C@@H](C)C[C@H](OC)[C@H](O)[C@@H](C)/C=C(\C)[C@H](OC(N)=O)[C@@H](OC)/C=C\C=C(/C)C(=O)NC(=CC1=O)C2=O` [Tanespimycin] + O=C(CCCCCCC(=O)Nc1ccccc1)NO [vorinostat] (first compound 0.002 µM, partner dose 0.08 µM): the cell count amounted to 104% in the assay with MZ2-MEL; 84.9% in the assay with MeWo; 77.3% in the assay with RPMI7951; 110% in the assay on RVH-421; 81.5% in the assay with SkMel28; 93.2% in the assay on SkMel2. Besides, the cell count is 92.8% in the assay on SkMel30, 89.1% in the assay on SkMel5, 81.3% with UACC257 and 88.7% with UACC62.
`CNC(=O)c1cc(Oc2ccc(NC(=O)Nc3ccc(Cl)c(C(F)(F)F)c3)cc2)ccn1` [sorafenib] + Cc1ccc(NC(=O)c2cccc(N(C)C)c2)cc1NC(=O)c1ccc(O)cc1 [ZM336372] (first compound 0.4 µM, partner dose 2 µM): the cell count in the assay with MZ2-MEL is 100%; in the assay with MeWo, 100%; in the assay on RPMI7951 it was 92.7%; in the assay with RVH-421 it was 110%; in the assay on SkMel28, 99.7%; with SkMel2 it was 88.8%. The cell count in the assay on SkMel30 was determined as 103%; in the assay on SkMel5, 96.8%; in the assay on UACC257 it was 101%; in the assay on UACC62, 95.3%.
In the case of `CN1CCN(c2ccc3nc(-c4c(N)c5c(F)cccc5[nH]c4=O)[nH]c3c2)CC1` [Dovitinib] + Cn1cc(/C=C2\C(=O)Nc3cccnc32)c2ccccc21 [GW441756] (first compound 0.1 µM, partner dose 0.4 µM), the cell count in the assay on MZ2-MEL was determined as 98%; with MeWo, 100%; in the assay with RPMI7951, 113%; in the assay on RVH-421, 94.6%; in the assay on SkMel28 it was 82%; in the assay with SkMel2 it was 103%. Besides, the cell count turned out to be 97.2% in the assay on SkMel30, 95.9% in the assay on SkMel5, 95.3% with UACC257 and 88.4% in the assay with UACC62.
